Assay results: patent publication EP1943275B1, “INSULINOTROPIC COMPOUNDS AND USES THEREOF” (Activotec SPP Limited, priority 2005, dated 2010)
Not every detail of the peptide structures is certain; ends, links or a residue may be inferred.

System: beta TC-6 cell line
Test: Insulin release assay in Beta-TC-6 cells (insulin ELISA)
Format: cell-based, mouse
Details: for Insulin release: 5mM glucose, 30 minutes at 37°C; for Activity of 3 µM of each peptide as percentage of insulin release bv cells only: 3 µM peptide; for Activity of 3 µM of each peptide as percentage of insulin release bv cells only / Activity of 15 µM of each peptide as percentage of insulin release bv cells only: cells alone = 100%; for Activity of 15 µM of each peptide as percentage of insulin release bv cells only: 15 µM peptide

| SMILES | Insulin release (3µM peptide) [ng/min/mg] | Activity of 3 µM of each peptide as percentage of insulin release bv cells only [%] | Insulin release (15µM peptide) [ng/min/mg] | Activity of 15 µM of each peptide as percentage of insulin release bv cells only [%] |
| --- | --- | --- | --- | --- |
| CC[C@H](C)[C@H](NC(=O)[C@H](Cc1ccccc1)NC(=O)[C@H](CCC(=O)O)NC(=O)[C@H](CCCCN)NC(=O)[C@H](C)NC(=O)[C@H](C)NC(=O)[C@H](CCC(N)=O)NC(=O)CNC(=O)[C@H](CCC(=O)O)NC(=O)[C@H](CC(C)C)NC(=O)[C@H](Cc1ccc(O)cc1)NC(=O)[C@H](CO)NC(=O)[C@H](CO)NC(=O)[C@@H](NC(=O)[C@H](CC(=O)O)NC(=O)[C@H](CO)NC(=O)[C@@H](NC(=O)[C@H](Cc1ccccc1)NC(=O)[C@@H](NC(=O)CNC(=O)[C@H](CCC(=O)O)NC(=O)N[C@@H](C)C(=O)N[C@@H](Cc1c[nH]cn1)C(N)=O)[C@@H](C)O)[C@@H](C)O)C(C)C)C(=O)N[C@@H](C)C(=O)N[C@@H](Cc1c[nH]c2ccccc12)C(=O)N[C@@H](CC(C)C)C(=O)N[C@H](C(=O)N[C@@H](CCCCN)C(=O)NCC(=O)N[C@@H](CCCNC(=N)N)C(=O)NCC(=O)O)C(C)C [SP001, GLP-1 NH2-L-His-L-Ala-urea-9-37] | 1.59 | 92 ± 28 | 1.83 | 100 ± 47 |
| CC[C@H](C)[C@H](NC(=O)[C@H](Cc1ccccc1)NC(=O)[C@H](CCC(=O)O)NC(=O)[C@H](CCCCN)NC(=O)[C@H](C)NC(=O)[C@H](C)NC(=O)[C@H](CCC(N)=O)NC(=O)CNC(=O)[C@H](CCC(=O)O)NC(=O)[C@H](CC(C)C)NC(=O)[C@H](Cc1ccc(O)cc1)NC(=O)[C@H](CO)NC(=O)[C@H](CO)NC(=O)[C@@H](NC(=O)[C@H](CC(=O)O)NC(=O)[C@H](CO)NC(=O)[C@@H](NC(=O)[C@H](Cc1ccccc1)NC(=O)[C@@H](NC(=O)CNC(=O)[C@H](CCC(=O)O)NC(=O)N[C@H](C)C(=O)N[C@H](Cc1c[nH]cn1)C(N)=O)[C@@H](C)O)[C@@H](C)O)C(C)C)C(=O)N[C@@H](C)C(=O)N[C@@H](Cc1c[nH]c2ccccc12)C(=O)N[C@@H](CC(C)C)C(=O)N[C@H](C(=O)N[C@@H](CCCCN)C(=O)NCC(=O)N[C@@H](CCCNC(=N)N)C(=O)NCC(=O)O)C(C)C [SP002, GLP-1 NH2-D-His-D-Ala-Urea-9-37] | 2.58 | 192 ± 38 | 3.52 | 254 ± 70 |
| CC[C@H](C)[C@H](NC(=O)[C@H](Cc1ccccc1)NC(=O)[C@H](CCC(=O)O)NC(=O)[C@H](CCCCN)NC(=O)[C@H](C)NC(=O)[C@H](C)NC(=O)[C@H](CCC(N)=O)NC(=O)CNC(=O)[C@H](CCC(=O)O)NC(=O)[C@H](CC(C)C)NC(=O)[C@H](Cc1ccc(O)cc1)NC(=O)[C@H](CO)NC(=O)[C@H](CO)NC(=O)[C@@H](NC(=O)[C@H](CC(=O)O)NC(=O)[C@H](CO)NC(=O)[C@@H](NC(=O)[C@H](Cc1ccccc1)NC(=O)[C@@H](NC(=O)CNC(=O)[C@H](CCC(=O)O)NC(=O)CONC[C@H](C)NC(=O)[C@@H](N)Cc1c[nH]cn1)[C@@H](C)O)[C@@H](C)O)C(C)C)C(=O)N[C@@H](C)C(=O)N[C@@H](Cc1c[nH]c2ccccc12)C(=O)N[C@@H](CC(C)C)C(=O)N[C@H](C(=O)N[C@@H](CCCCN)C(=O)NCC(=O)N[C@@H](CCCNC(=N)N)C(=O)NCC(=O)O)C(C)C [SP005] | 2.25 | 171 ± 53 | 5.26 | 358 ± 128 |
| CC[C@H](C)[C@H](NC(=O)[C@H](Cc1ccccc1)NC(=O)[C@H](CCC(=O)O)NC(=O)[C@H](CCCCN)NC(=O)[C@H](C)NC(=O)[C@H](C)NC(=O)[C@H](CCC(N)=O)NC(=O)CNC(=O)[C@H](CCC(=O)O)NC(=O)[C@H](CC(C)C)NC(=O)[C@H](Cc1ccc(O)cc1)NC(=O)[C@H](CO)NC(=O)[C@H](CO)NC(=O)[C@@H](NC(=O)[C@H](CC(=O)O)NC(=O)[C@H](CO)NC(=O)[C@@H](NC(=O)[C@H](Cc1ccccc1)NC(=O)[C@@H](NC(=O)CNC(=O)[C@H](CCC(=O)O)NC(=O)CNNC(=O)[C@@H](N)Cc1c[nH]cn1)[C@@H](C)O)[C@@H](C)O)C(C)C)C(=O)N[C@@H](C)C(=O)N[C@@H](Cc1c[nH]c2ccccc12)C(=O)N[C@@H](CC(C)C)C(=O)N[C@H](C(=O)N[C@@H](CCCCN)C(=O)NCC(=O)N[C@@H](CCCNC(=N)N)C(=O)NCC(=O)O)C(C)C [SP006, L-His-NH-NH-CH2-C(O)-Glu9-37] | 3.86 | 154 ±25 | 8.88 | 330 ± 89 |
| CC[C@H](C)[C@H](NC(=O)[C@H](Cc1ccccc1)NC(=O)[C@H](CCC(=O)O)NC(=O)[C@H](CCCCN)NC(=O)[C@H](C)NC(=O)[C@H](C)NC(=O)[C@H](CCC(N)=O)NC(=O)CNC(=O)[C@H](CCC(=O)O)NC(=O)[C@H](CC(C)C)NC(=O)[C@H](Cc1ccc(O)cc1)NC(=O)[C@H](CO)NC(=O)[C@H](CO)NC(=O)[C@@H](NC(=O)[C@H](CC(=O)O)NC(=O)[C@H](CO)NC(=O)[C@@H](NC(=O)[C@H](Cc1ccccc1)NC(=O)[C@@H](NC(=O)CNC(=O)[C@H](CCC(=O)O)NC(=O)CNNC(=O)[C@H](C)NC(=O)[C@@H](N)Cc1c[nH]cn1)[C@@H](C)O)[C@@H](C)O)C(C)C)C(=O)N[C@@H](C)C(=O)N[C@@H](Cc1c[nH]c2ccccc12)C(=O)N[C@@H](CC(C)C)C(=O)N[C@H](C(=O)N[C@@H](CCCCN)C(=O)NCC(=O)N[C@@H](CCCNC(=N)N)C(=O)NCC(=O)O)C(C)C [SP007, L-His-L-Ala-NH-NH-CH2-C(O)-Glu9-37] | 4.51 | 113 ± 65 | 8.08 | 235 ± 91 |
| CC[C@H](C)[C@H](NC(=O)[C@H](Cc1ccccc1)NC(=O)[C@H](CCC(=O)O)NC(=O)[C@H](CCCCN)NC(=O)[C@H](C)NC(=O)[C@H](C)NC(=O)[C@H](CCC(N)=O)NC(=O)CNC(=O)[C@H](CCC(=O)O)NC(=O)[C@H](CC(C)C)NC(=O)[C@H](Cc1ccc(O)cc1)NC(=O)[C@H](CO)NC(=O)[C@H](CO)NC(=O)[C@@H](NC(=O)[C@H](CC(=O)O)NC(=O)[C@H](CO)NC(=O)[C@@H](NC(=O)[C@H](Cc1ccccc1)NC(=O)[C@@H](NC(=O)CNC(=O)[C@H](CCC(=O)O)NC(=O)[C@H](C)NNC(=O)[C@@H](N)Cc1c[nH]cn1)[C@@H](C)O)[C@@H](C)O)C(C)C)C(=O)N[C@@H](C)C(=O)N[C@@H](Cc1c[nH]c2ccccc12)C(=O)N[C@@H](CC(C)C)C(=O)N[C@H](C(=O)N[C@@H](CCCCN)C(=O)NCC(=O)N[C@@H](CCCNC(=N)N)C(=O)NCC(=O)O)C(C)C [SP008, L-His-NH-NH-CH(CH3)-C(O)-Glu9-37] | 4.35 | 112 ± 44 | 6.20 | 170 ± 48 |
